From PubChem BioAssay (NCI) come the findings set out here.

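Step 1: Grow cells in 96-well plates. Step 2: Expose to compound for 48 hours at 5 concentrations. Step 3: Interpolate endpoints linearly; if unreached, use highest concentration. At the GI50, growth is halved. TGI marks complete inhibition of growth.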 A value given as a limit tells only on which side of the number the result lay.

The subject of the assay is NCI-H322M lung. Put plainly: NCI-60 cell line screen, 48 h.
Take `COc1cc2c(cc1OC)CN(CCCCOc1cc(O)c3c(=O)cc(-c4ccccc4)oc3c1)CC2`: the GI50 is 42.8 µM and the TGI is greater than 100 µM.

In the case of `CC1(C)CC[C@]2(C(=O)Nc3ccc(Br)cc3)CC[C@]3(C)C(=CCC4[C@@]5(C)C[C@@H](O)[C@H](O)[C@@](C)(CO)C5CC[C@]43C)C2C1` (stereo not given in full), the GI50 is 21.6 µM and the TGI was determined as 63 µM.

Take `O=C1c2c(c3c4cc(F)ccc4oc3c3[nH]c4ccc(Br)cc4c23)C(=O)N1O`: the GI50 was 50.7 µM and the TGI is greater than 100 µM.

For `O=c1oc2ccc(-c3ccc(F)cc3F)cc2c(=O)n1-c1ccc(Cl)c(C(F)(F)F)c1`, the GI50 was 3.14 µM and the TGI came out at 10.3 µM.

For `O=C(c1ccc(O)cc1)C1[C@H](c2ccc(Cl)cc2)[C@@H](c2ccccc2)NC12C(=O)Nc1ccc(Br)cc12` (stereo not given in full), the GI50 was 13.5 µM and the TGI was determined as 26.3 µM.
